Experimental data reported in the supplement of paper PMC7826260.
The list shows a part of the results. One pool of 16,384 single-stranded DNAs met each Rep nickase domain in vitro (1 h at 37 °C, 3 µM enzyme); the outer parts of the 90-letter strands are left off. Uncut reads are compared with the no-enzyme pool on a log2 scale; the lower, the more was cut; hits are not called. Counts are relative to all reads; values above 0 arise when much of the pool is cut.

How the values were obtained:
Assay in all cases: uncleaved DNA left, log2 of reads against the no-enzyme library (log2 ratio); higher = less cleavage (more negative = more Rep cleavage of the k-mer); sequences stand for … in CTCGTCCG…ACCGGAGA
[1] = system: T1, Rep nickase domain of Muscovy duck circovirus
T1 sequence (residues 1-111, tag not shown): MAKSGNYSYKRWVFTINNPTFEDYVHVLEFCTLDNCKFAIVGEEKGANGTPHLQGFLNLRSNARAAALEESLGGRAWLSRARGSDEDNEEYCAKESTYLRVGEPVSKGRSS
Procedure: (§1)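 A pool of 90-nt single-stranded DNAs with seven random bases just before the constant AC of the nick site (name = the seven bases) was cut by 3 µM recombinant His6-SUMO-tagged Rep nickase domain (300 nM DNA, 50 mM HEPES pH 8.0, 50 mM NaCl, 1 mM MnCl2, 1 h, 37 °C, three replicates). Uncut DNA was amplified and sequenced.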

[2] = system: T2, Rep nickase domain of banana bunchy top virus
T2 sequence (residues 1-94, tag not shown): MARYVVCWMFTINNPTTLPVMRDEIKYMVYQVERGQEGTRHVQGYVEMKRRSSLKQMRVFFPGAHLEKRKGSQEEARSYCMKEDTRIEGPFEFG
Procedure: as §1

[3] = system: T3, Rep nickase domain of cabbage leaf curl virus
T3 sequence (residues 1-116, tag not shown): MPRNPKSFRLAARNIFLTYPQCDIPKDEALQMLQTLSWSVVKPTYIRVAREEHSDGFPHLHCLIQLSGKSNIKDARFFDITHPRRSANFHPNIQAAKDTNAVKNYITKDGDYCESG
Procedure: as §1

[4] = system: T4, Rep nickase domain of chickpea chlorotic dwarf virus
T4 sequence (residues 1-124, tag not shown): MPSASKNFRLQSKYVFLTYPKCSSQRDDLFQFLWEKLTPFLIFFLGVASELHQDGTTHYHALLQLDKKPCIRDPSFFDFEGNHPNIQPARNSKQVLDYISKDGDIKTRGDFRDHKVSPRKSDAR
Procedure: as §1

[5] = system: T5, Rep nickase domain of faba bean necrotic yellows virus
T5 sequence (residues 1-98, tag not shown): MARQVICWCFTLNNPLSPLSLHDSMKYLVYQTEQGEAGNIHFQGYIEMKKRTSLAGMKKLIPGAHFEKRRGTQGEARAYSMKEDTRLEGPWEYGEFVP
Procedure: as §1

[6] = system: T6, Rep nickase domain of maize striate mosaic virus
T6 sequence (residues 1-117, tag not shown): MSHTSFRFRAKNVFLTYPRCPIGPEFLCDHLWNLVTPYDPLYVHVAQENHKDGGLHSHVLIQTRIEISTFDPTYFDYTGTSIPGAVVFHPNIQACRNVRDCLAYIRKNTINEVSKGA
Procedure: as §1

[7] = system: T7, Rep nickase domain of porcine circovirus 2
T7 sequence (residues 2-116, tag not shown): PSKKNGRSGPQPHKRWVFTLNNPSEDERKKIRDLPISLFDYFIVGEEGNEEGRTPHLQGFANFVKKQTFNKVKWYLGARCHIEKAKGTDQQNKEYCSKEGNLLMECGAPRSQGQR
Procedure: as §1

[8] = system: T8, Rep nickase domain of tomato golden mosaic virus
T8 sequence (residues 1-124, tag not shown): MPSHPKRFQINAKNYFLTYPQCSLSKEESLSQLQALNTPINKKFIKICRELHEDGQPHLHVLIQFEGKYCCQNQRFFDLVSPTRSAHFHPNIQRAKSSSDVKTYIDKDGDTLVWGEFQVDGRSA
Procedure: as §1

[9] = system: T9, Rep nickase domain of tomato yellow leaf curl virus
T9 sequence (residues 1-136, tag not shown): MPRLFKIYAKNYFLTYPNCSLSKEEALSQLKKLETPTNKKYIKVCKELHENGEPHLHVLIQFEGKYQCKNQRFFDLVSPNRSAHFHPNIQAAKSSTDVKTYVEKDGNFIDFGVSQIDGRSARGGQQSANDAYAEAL
Procedure: as §1

[10] = system: T10, Rep nickase domain of wheat dwarf virus
T10 sequence (residues 1-137, tag not shown): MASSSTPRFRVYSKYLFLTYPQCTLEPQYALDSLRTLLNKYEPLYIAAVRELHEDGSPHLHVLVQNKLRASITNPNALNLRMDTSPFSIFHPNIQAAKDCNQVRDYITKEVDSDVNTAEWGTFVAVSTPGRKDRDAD
Procedure: as §1

Sequence	uncleaved DNA left (log2) [1]	uncleaved DNA left (log2) [2]	uncleaved DNA left (log2) [3]	uncleaved DNA left (log2) [4]	uncleaved DNA left (log2) [5]	uncleaved DNA left (log2) [6]	uncleaved DNA left (log2) [7]	uncleaved DNA left (log2) [8]	uncleaved DNA left (log2) [9]	uncleaved DNA left (log2) [10]
CCCGAAC	-0.124	-0.311	-0.0132	-0.275	-0.163	-0.463	0.0237	-0.175	-0.122	-0.0911
CTCCATC	-0.0234	-0.0966	-0.075	-0.361	0.0261	-0.743	-0.105	-0.116	-0.00254	-0.079
AAAAATG	0.103	0.0971	-0.389	-0.728	0.0704	-0.888	0.114	0.162	0.105	0.0767
AGAGGTC	0.165	-0.0318	0.274	0.78	-0.00469	0.631	0.0316	0.107	-0.113	-0.0159
AGTCTTC	0.0204	-0.0945	0.0876	0.199	0.00151	-0.293	-0.493	-0.0175	-0.00117	-0.00551
GGGAAGG	0.0634	0.062	0.845	1.89	-0.0667	2.12	0.249	-0.000822	-0.0173	0.121
AACTTCA	-0.301	-0.0787	-0.251	-2.54	0.0264	-0.751	-3.15	-0.034	0.0337	0.0801
GGGAATC	0.00766	0.0548	0.86	1.98	0.0815	2.26	0.176	-0.0326	0.0265	0.217
AGGGCCA	0.0221	0.103	0.403	0.809	-0.0455	1.28	0.103	0.114	-0.0196	0.0817
GGATCTA	0.0503	0.0643	0.611	1.3	0.0294	1.93	0.0952	-0.112	0.0635	0.174
CCATAAT	-2.99	-0.111	-0.708	-1.98	0.0641	-0.68	-3.37	-0.0876	-0.0412	0.0247
GCTACTT	0.0225	0.0301	0.152	-0.986	0.0226	0.705	-0.149	-0.0579	-0.123	0.0214
GAGCCCG	-0.0589	-0.112	-0.519	-0.38	-0.063	-0.571	-0.0503	-0.097	-0.106	-0.0793
ATGTGAG	0.113	0.0125	-0.692	-0.385	-0.0706	-1.06	0.163	-0.00636	0.167	-0.0767
ACGGGCT	0.00493	0.127	-0.194	-0.676	-0.0361	-0.507	0.161	0.114	-0.0114	-0.0164
CTTGTAA	0.101	0.145	0.0162	-0.518	0.0832	-0.728	0.108	0.0586	0.155	0.0936

Sequence	uncleaved DNA left (log2) [1]	uncleaved DNA left (log2) [2]	uncleaved DNA left (log2) [3]	uncleaved DNA left (log2) [4]	uncleaved DNA left (log2) [5]	uncleaved DNA left (log2) [6]	uncleaved DNA left (log2) [7]	uncleaved DNA left (log2) [8]	uncleaved DNA left (log2) [9]	uncleaved DNA left (log2) [10]
GTGCGGG	-0.0547	-0.0152	-0.069	0.141	-0.0948	-0.206	0.0145	-0.111	0.0358	-0.154
CAAACGG	-0.0943	0.0671	0.458	1.39	-0.0195	1.34	0.107	0.143	-0.0663	0.153
GATTCAA	-0.0964	0.131	0.138	0.729	-0.103	1.04	-0.0471	0.00612	0.0949	0.072
AGGTACA	0.00586	-0.0122	0.178	0.0958	-0.00754	0.735	-0.0681	-0.0342	0.0748	0.0737
ATCTATG	-0.00368	0.0174	-0.444	-0.409	0.0931	-1.02	0.286	0.0638	0.0612	0.0553
TGAGGCT	0.0484	0.0518	0.229	0.504	-0.0341	1	0.162	0.00972	-0.132	0.00417
TTGAAGA	0.0223	-0.0916	-0.175	-0.382	-0.226	-1.14	-0.0209	-0.094	0.00413	-0.106
AATAATT	-1.06	-2.6	-1.31	-2.8	-0.128	-0.947	-3.95	-0.0473	-0.0206	-0.264
GAATTTC	-0.429	-0.0817	-1.85	-1.86	0.00912	0.248	-1.09	-0.269	0.173	-0.347
CCTACCG	-0.247	-0.183	-1.02	-1.98	-0.185	-1.16	-0.148	-0.239	-0.136	-0.395
TGTGAAT	0.132	0.0215	0.315	0.727	0.0499	1.36	-0.0337	0.0604	0.0636	0.15
GAGTGGG	0.167	0.0834	-0.248	-0.197	0.1	-0.263	0.107	0.195	0.127	0.0204
GTGCGAA	0.0337	0.0581	-0.118	0.251	-0.0215	-0.487	0.0383	-0.0202	0.046	-0.13
AAGCTTG	0.0852	0.172	0.398	1.41	0.105	1.49	0.283	0.151	-0.0587	0.189
GGTAGAA	0.0746	0.0252	0.592	1.33	-0.00323	1.88	0.14	-0.00457	0.0288	0.158
